Measurements as given in patent US11807625B2, “Capsid inhibitors for the prevention of HIV” (Gilead Sciences, Inc., priority 2019, dated 2023).
“And” between values parts separate entries of the source, which are not always exact repeats. Equal entries are not always repeated. Further values from the same series stand in other lists.

Test: Plasma concentration vs. time profile of Compound Ib in rhesus after single subcutaneous dose (SHIV challenge study)
Type: in vivo, rhesus macaques

SMILES: CC(C)(C#Cc1ccc(-c2ccc(Cl)c3c(NS(=O)(=O)C4CC4)nn(CC(F)F)c23)c([C@H](Cc2cc(F)cc(F)c2)NC(=O)Cn2nc(C(F)F)c3c2C(F)(F)[C@@H]2C[C@H]32)n1)S(C)(=O)=O [Compound Ib, N—((S)-1-(3-(4-chloro-3-(cyclopropanesulfonamido)-1-(2,2-difluoroethyl)-1H-indazol-7-yl)-6-(3-methyl-3-(methylsulfonyl)but-1-yn-1-yl)pyridin-2-yl)-2-(3,5-difluorophenyl)ethyl)-2-((3b S,4aR)-3-(difluoromethyl)-5,5-difluoro-3b,4,4a,5-tetrahydro-1H-cyclopropa[3,4]cyclopenta[1,2-c]pyrazol-1-yl)acetamide]
- Plasma Compound Ib Concentrations (150 mg/kg SC day 0, individual animals, study week 1, SHIV dose 10 x TCID50): 688 nM and 900 nM and 682 nM and 607 nM
- Plasma Compound Ib Concentrations (150 mg/kg SC day 0, individual animals, study week 2, SHIV dose 10 x TCID50): 773 nM and 1189 nM and 785 nM and 1097 nM
- Plasma Compound Ib Concentrations (150 mg/kg SC day 0, individual animals, study week 3, SHIV dose 10 x TCID50): 197 nM and 498 nM and 269 nM
- Plasma Compound Ib Concentrations (150 mg/kg SC day 0, individual animals, study week 4, SHIV dose 10 x TCID50): 68 nM and 153 nM and 237 nM and 181 nM
- Plasma Compound Ib Concentrations (150 mg/kg SC day 0, individual animals, study week 5, SHIV dose 10 x TCID50): 95 nM and 181 nM and 87 nM and 203 nM
- Plasma Compound Ib Concentrations (150 mg/kg SC day 0, individual animals, study week 6, SHIV dose 10 x TCID50): 94 nM and 239 nM and 84 nM and 202 nM
- Plasma Compound Ib Concentrations (150 mg/kg SC day 0, individual animals, study week 7, SHIV dose 10 x TCID50): 65 nM and 104 nM and 58 nM and 136 nM
- Plasma Compound Ib Concentrations (150 mg/kg SC day 0, individual animals, study week 8, SHIV dose 10 x TCID50): 126 nM and 152 nM and 171 nM
- Plasma Compound Ib Concentrations (150 mg/kg SC day 0, individual animals, study week 9, SHIV dose 33 x TCID50): 25 nM and 66 nM and 41 nM and 79 nM
- Plasma Compound Ib Concentrations (150 mg/kg SC day 0, individual animals, study week 10, SHIV dose 33 x TCID50): 51 nM and 157 nM and 35 nM and 37 nM and 31 nM and 47 nM and 61 nM and 87 nM
- Plasma Compound Ib Concentrations (150 mg/kg SC day 0, individual animals, study week 11, SHIV dose 100 x TCID50): 345 nM and 41 nM and 18 nM and 14 nM and 15 nM and 26 nM and 16 nM and 52 nM
- Plasma Compound Ib Concentrations (150 mg/kg SC day 0, individual animals, study week 12, SHIV dose 100 x TCID50): 44 nM and 112 nM and 35 nM and 13 nM and 19 nM and 47 nM and 59 nM and 58 nM
- Plasma Compound Ib Concentrations (150 mg/kg SC day 0, individual animals, study week 13, SHIV dose 100 x TCID50): 37 nM and 51 nM and 41 nM and 7.3 nM and 13 nM and 44 nM and 61 nM and 42 nM
- Plasma Compound Ib Concentrations (150 mg/kg SC day 0, individual animals, study week 14, SHIV dose 100 x TCID50): 33 nM and 84 nM and 22 nM and 5.2 nM and 13 nM and 34 nM and 31 nM and 40 nM
- Plasma Compound Ib Concentrations (150 mg/kg SC day 0, individual animals, study week 15, SHIV dose 100 x TCID50): 26 nM and 39 nM and 19 nM and 3.2 nM and 8.9 nM and 16 nM and 32 nM and 22 nM
- Plasma Compound Ib Concentrations (150 mg/kg SC day 0, individual animals, study week 16, SHIV dose N/A): 11 nM and 28 nM and 13 nM (2×) and 1.6 nM and 6.1 nM and 18 nM and 12 nM
- Plasma Compound Ib Concentrations (150 mg/kg SC day 0, individual animals, study week 17, SHIV dose N/A): 12 nM and 21 nM (2×) and 14 nM (2×) and 1.2 nM and 5.1 nM and 17 nM
- Plasma Compound Ib Concentrations (300 mg/kg SC day 0, individual animals, study week 1, SHIV dose 10 x TCID50): 6745 nM
- Plasma Compound Ib Concentrations (300 mg/kg SC day 0, individual animals, study week 2, SHIV dose 10 x TCID50): 5021 nM
- Plasma Compound Ib Concentrations (300 mg/kg SC day 0, individual animals, study week 3, SHIV dose 10 x TCID50): 1254 nM
- Plasma Compound Ib Concentrations (300 mg/kg SC day 0, individual animals, study week 4, SHIV dose 10 x TCID50): 743 nM
- Plasma Compound Ib Concentrations (300 mg/kg SC day 0, individual animals, study week 5, SHIV dose 10 x TCID50): 556 nM
- Plasma Compound Ib Concentrations (300 mg/kg SC day 0, individual animals, study week 6, SHIV dose 10 x TCID50): 396 nM
- Plasma Compound Ib Concentrations (300 mg/kg SC day 0, individual animals, study week 7, SHIV dose 10 x TCID50): 343 nM
- Plasma Compound Ib Concentrations (300 mg/kg SC day 0, individual animals, study week 8, SHIV dose 10 x TCID50): 287 nM
- Plasma Compound Ib Concentrations (300 mg/kg SC day 0, individual animals, study week 9, SHIV dose 33 x TCID50): 147 nM
- Plasma Compound Ib Concentrations (300 mg/kg SC day 0, individual animals, study week 10, SHIV dose 33 x TCID50): 131 nM and 73 nM and 70 nM and 55 nM and 98 nM and 117 nM and 106 nM and 114 nM
- Plasma Compound Ib Concentrations (300 mg/kg SC day 0, individual animals, study week 11, SHIV dose 100 x TCID50): 96 nM and 32 nM and 50 nM (2×) and 60 nM and 94 nM and 52 nM and 72 nM
- Plasma Compound Ib Concentrations (300 mg/kg SC day 0, individual animals, study week 12, SHIV dose 100 x TCID50): 53 nM and 93 nM and 85 nM and 66 nM and 84 nM and 75 nM and 101 nM
- Plasma Compound Ib Concentrations (300 mg/kg SC day 0, individual animals, study week 13, SHIV dose 100 x TCID50): 66 nM (2×) and 32 nM and 74 nM (2×) and 43 nM and 47 nM and 77 nM
- Plasma Compound Ib Concentrations (300 mg/kg SC day 0, individual animals, study week 14, SHIV dose 100 x TCID50): 63 nM and 40 nM and 83 nM and 94 nM and 45 nM and 85 nM and 41 nM and 86 nM
- Plasma Compound Ib Concentrations (300 mg/kg SC day 0, individual animals, study week 15, SHIV dose 100 x TCID50): 32 nM and 48 nM and 47 nM (2×) and 46 nM and 29 nM and 50 nM
- Plasma Compound Ib Concentrations (300 mg/kg SC day 0, individual animals, study week 16, SHIV dose N/A): 26 nM and 22 nM and 28 nM and 24 nM and 20 nM and 34 nM and 15 nM and 30 nM
- Plasma Compound Ib Concentrations (300 mg/kg SC day 0, individual animals, study week 17, SHIV dose N/A): 23 nM and 17 nM and 28 nM and 26 nM and 21 nM and 24 nM and 13 nM and 38 nM
